Measured values from the supplement of paper PMC4967469.
Lines with a small IC50 respond at low doses; a limit (>, <) means that the fit lies beyond the doses tested. For AUC the same curve is integrated over the 256-fold range of doses and scaled to a fraction; the more sensitive the line, the further below 1. For some of these results: An inferred top dose was derived from the fitted curves, not read from the paper.

Tests used:
Assay in all cases: Viability of human cancer cell lines after 72 h of drug (GDSC screen)
Trametinib = compound: CC(=O)Nc1cccc(-n2c(=O)n(C3CC3)c(=O)c3c(Nc4ccc(I)cc4F)n(C)c(=O)c(C)c32)c1 [Trametinib]; conditions: top dose 1 µM
Protocol: (§1)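 Human cancer cell lines in 384-well plates, medium with 10% serum, drug for 72 h over a 256-fold dose range (nine 2-fold or five 4-fold steps up to the top dose). Adherent lines were fixed and stained with the nucleic acid dye Syto60, suspension lines read with resazurin; signal relative to control wells, capped at 0 and 100%. One two-parameter sigmoid per drug and line, fitted in a mixed model over all curves with the slope shared within a line.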

HG-6-64-1 = compound: CCN1CCN(Cc2ccc(NC(=O)c3ccc(C)c(/C=C/c4cnc5[nH]ccc5c4OC)c3)cc2C(F)(F)F)CC1 [HG-6-64-1]; conditions: top dose 5.12 µM; top dose inferred
Protocol: as §1

I-BET-762 = compound: CCNC(=O)C[C@@H]1N=C(c2ccc(Cl)cc2)c2cc(OC)ccc2-n2c(C)nnc21 [I-BET-762]; conditions: top dose 20 µM; top dose inferred
Protocol: as §1

AV-951 = compound: COc1cc2nccc(Oc3ccc(NC(=O)Nc4cc(C)on4)c(Cl)c3)c2cc1OC [AV-951]; conditions: top dose 0.128 µM; top dose inferred
Protocol: as §1

KIN001-244 = compound: O=C(NC(COc1ccc2[nH]c(=O)[nH]c2c1)c1ccccc1)c1cccn(Cc2ccc(F)c(F)c2)c1=O [KIN001-244]; conditions: top dose 20 µM; top dose inferred
Protocol: as §1

PF-4708671 = compound: CCc1cncnc1N1CCN(Cc2nc3ccc(C(F)(F)F)cc3[nH]2)CC1 [PF-4708671]; conditions: top dose 10 µM; top dose inferred
Protocol: as §1

| Cell Line | AUC (Trametinib) | IC50 (Trametinib) [nM] | AUC (HG-6-64-1) | IC50 (HG-6-64-1) [nM] | AUC (I-BET-762) | IC50 (I-BET-762) [nM] | AUC (AV-951) | IC50 (AV-951) [nM] | AUC (KIN001-244) | IC50 (KIN001-244) [nM] | AUC (PF-4708671) | IC50 (PF-4708671) [nM] |
| --- | --- | --- | --- | --- | --- | --- | --- | --- | --- | --- | --- | --- |
| 769-P (kidney, adherent) | 0.495 | 60.3 | 0.673 | 1020 | 0.911 | > 20000 | 0.972 | > 128 | 0.872 | > 20000 |  |  |
| A704 (kidney, adherent) | 0.868 | 868 | 0.712 | 1250 |  |  | 0.988 | > 128 | 0.94 | > 20000 |  |  |
| CHSA0011 (chondrosarcoma, adherent) | 0.438 | 39.5 | 0.924 | > 5120 | 0.958 | > 20000 | 0.954 | > 128 | 0.902 | > 20000 |  |  |
| COLO-783 (melanoma, adherent) | 0.34 | 22.9 | 0.971 | > 5120 | 0.925 | > 20000 | 0.99 | > 128 | 0.979 | > 20000 |  |  |
| Caov-4 (ovary, adherent) | 0.441 | 40 | 0.954 | > 5120 |  |  | 0.972 | > 128 | 0.898 | > 20000 | 0.98 | > 10000 |
| DU-145 (prostate, adherent) | 0.489 | 57.9 | 0.661 | 947 |  |  | 0.985 | > 128 | 0.881 | > 20000 | 0.951 | > 10000 |
| G-292 Clone A141B1 (osteosarcoma, adherent) | 0.612 | 152 | 0.645 | 1030 | 0.931 | > 20000 | 0.942 | > 128 | 0.959 | > 20000 |  |  |
| G-MEL (melanoma, adherent) | 0.029 | < 3.91 | 0.627 | 714 | 0.959 | > 20000 | 0.986 | > 128 | 0.895 | > 20000 |  |  |
| H290 (mesothelioma, adherent) | 0.333 | 22.4 | 0.774 | 1830 |  |  | 0.968 | > 128 |  |  |  |  |
| HCC-78 (lung adenocarcinoma, adherent) | 0.637 | 160 | 0.976 | > 5120 | 0.983 | > 20000 | 0.97 | > 128 | 0.918 | > 20000 |  |  |
| HL-60 (acute myeloid leukaemia, suspension) | 0.872 | 785 | 0.799 | 2170 |  |  | 0.99 | > 128 | 0.836 | 11400 | 0.99 | > 10000 |
| HSC-2 (head and neck, adherent) | 0.743 | 289 | 0.714 | 1220 | 0.971 | > 20000 | 0.987 | > 128 | 0.966 | > 20000 |  |  |
| JHU-029 (head and neck, adherent) | 0.389 | 28.9 | 0.623 | 759 |  |  |  |  |  |  | 0.968 | > 10000 |
| KP-1N (pancreas, adherent) | 0.849 | 802 | 0.86 | 4610 |  |  |  |  |  |  | 0.986 | > 10000 |
| LN-405 (glioma, adherent) | 0.926 | > 1000 | 0.774 | 2550 | 0.957 | > 20000 | 0.973 | > 128 | 0.925 | > 20000 |  |  |
| LoVo (large intestine, adherent) | 0.464 | 49.8 | 0.552 | 445 | 0.978 | > 20000 | 0.985 | > 128 | 0.882 | > 20000 |  |  |
| MDA-MB-330 (breast, adherent) | 0.967 | > 1000 | 0.798 | 2850 | 0.838 | 16300 | 0.986 | > 128 | 0.917 | > 20000 |  |  |
| MDA-MB-415 (breast, adherent) | 0.874 | > 1000 | 0.858 | > 5120 | 0.983 | > 20000 | 0.983 | > 128 | 0.901 | > 20000 |  |  |
| MDA-MB-453 (breast, adherent) | 0.916 | > 1000 | 0.968 | > 5120 | 0.652 | 3470 | 0.985 | > 128 | 0.845 | 16900 |  |  |
| MKN45 (stomach, adherent) | 0.432 | 38.9 | 0.873 | > 5120 |  |  | 0.98 | > 128 | 0.93 | > 20000 | 0.944 | > 10000 |
| MV-4-11 (leukaemia, suspension) | 0.328 | 22.9 | 0.203 | 52.8 |  |  | 0.919 | > 128 | 0.846 | 10900 | 0.874 | 6830 |
| NCI-H838 (lung adenocarcinoma, adherent) | 0.855 | 848 | 0.814 | 2940 | 0.954 | > 20000 | 0.986 | > 128 | 0.905 | > 20000 |  |  |
| OV-17R (ovary, adherent) | 0.76 | 491 |  |  | 0.715 | 6550 | 0.978 | > 128 | 0.729 | 7410 | 0.975 | > 10000 |
| OV-56 (ovary, adherent) | 0.744 | 301 |  |  | 0.849 | 14100 | 0.989 | > 128 | 0.915 | > 20000 | 0.985 | > 10000 |
| OVCA420 (ovary, adherent) | 0.304 | 14.5 |  |  | 0.816 | 16100 | 0.979 | > 128 | 0.849 | > 20000 | 0.943 | > 10000 |
| OVCA433 (ovary, adherent) | 0.328 | 19.5 |  |  | 0.931 | > 20000 | 0.969 | > 128 | 0.876 | > 20000 | 0.971 | > 10000 |
| OVK-18 (ovary, adherent) | 0.873 | > 1000 |  |  | 0.982 | > 20000 | 0.986 | > 128 | 0.892 | > 20000 | 0.906 | > 10000 |
